{
  "source": "PubChem BioAssay (NCI)",
  "note": "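Values below derive from 48-hour exposures of cells grown in 96-well plates, with endpoints linearly interpolated between the two concentrations bracketing the appropriate inhibition level. At the GI50, growth is halved. TGI: total growth inhibition.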",
  "data": [
    {"tested_on": "NCI-H322M lung", "assay": "NCI-60 cell line screen, 48 h", "units": {"TGI": "µM", "GI50": "µM"}, "values": [
      {"smiles": "CCCN(CCC)C(=S)N/N=C(/C)c1ccccc1O", "TGI": "> 87.6"},
      {"smiles": "CNC(=O)N(CCC#N)CCN(C(=O)N(C)C)c1ccccc1", "TGI": "> 100"},
      {"smiles": "N#CC1=C(N)NC(=S)NC1c1ccc(-c2ccc(-c3nc4ccccc4o3)cc2)s1", "note": "(stereo not drawn)", "GI50": 12.6, "TGI": 38.2},
      {"smiles": "CC(=O)Oc1ccc2c(c1)[C@@]1(C)CCCC(C)(C)[C@@H]1CC2", "GI50": 13.5, "TGI": 28.5},
      {"smiles": "NC(=S)N=Nc1c(O)[nH]c2c(Cl)cc(Cl)cc12", "TGI": "> 100"},
      {"smiles": "CN(C)C(=O)OCc1nc2c(N3CCOCC3)nc(-c3ccccc3)nc2n1C", "GI50": 1.56, "TGI": 3},
      {"smiles": "Cn1nc2ccc([N+](=O)[O-])cc2[n+]1[O-]", "TGI": "> 100"},
      {"smiles": "O=c1c2ccccc2[nH]c2c(O)ccc(O)c12", "TGI": "> 100"},
      {"smiles": "COCCOC(=O)NCn1cc(-c2ccccc2)nn1", "TGI": "> 100"},
      {"smiles": "O=[N+]([O-])C1=Cc2cc(Cl)ccc2OC1c1cccc2ccccc12", "note": "(stereo not drawn)", "TGI": 3.37},
      {"smiles": "C[C@]12CC[C@@H]3c4ccc(O)cc4CC[C@H]3[C@@H]1CC[C@@H]2NS(=O)(=O)c1ccc(Br)cc1", "GI50": 4.58, "TGI": 16.7},
      {"smiles": "Cc1cccc(C)c1NC(=O)CCC/C(CC(=O)c1ccc(F)cc1)=N\\NC(=O)C(=O)NN", "TGI": "> 100"},
      {"smiles": "OB(O)c1ccccc1C#Cc1ccccc1B(O)O", "TGI": 39.9},
      {"smiles": "Cc1csc(NNC(N)=O)n1", "TGI": "> 100"},
      {"smiles": "COc1cccc(/C=C/c2nc3c(cnn3-c3ccccc3)c(=O)[nH]2)c1", "GI50": "> 100", "TGI": "> 100"},
      {"smiles": "COc1ccc(C(C)c2cc(OC)c(OC)c(OC)c2)cc1", "note": "(stereo not drawn)", "GI50": 0.282, "TGI": "> 50"},
      {"smiles": "C/C(=N\\NC(=O)C[N+](C)(C)C)c1sc(-c2cccnc2)nc1C", "TGI": "> 100"},
      {"smiles": "O=C1N2Cc3c4ccc5c3CN3C(=O)N6Cc7c(ccc(c7CN1C6(c1ccccc1)C23c1ccccc1)OCCOCCOc1cc(Br)c(Br)cc1OCCOCCO4)OCCOCCOc1cc(Br)c(Br)cc1OCCOCCO5", "note": "(stereo not drawn)", "TGI": "> 100"},
      {"smiles": "CN1CC(c2ccccc2)C(O)(C2(c3ccccc3)CN(C)CC(c3ccccc3)C2=O)C(c2ccccc2)C1", "note": "(stereo not drawn)", "TGI": "> 100"},
      {"smiles": "Cc1cn(C2C=CC(COP(=O)(OCc3ccc([N+](=O)[O-])o3)N(C)CCCCCl)O2)c(=O)[nH]c1=O", "note": "(stereo not drawn)", "TGI": 27.1},
      {"smiles": "C=C1C(=O)OC2C1C(OC(=O)/C(C)=C/C)CC(O)(CCl)C1C(O)C=C(C)C21O", "note": "(stereo not drawn)", "TGI": "> 80.3"},
      {"smiles": "CO/N=C(/C)c1cccc(Nc2nc3ccc(Cl)cc3c3[nH]c4ccccc4c23)c1", "TGI": 8.44},
      {"smiles": "CC(=O)c1c(SCCN2CCOCC2)n(-c2ccccc2)c(=S)n(-c2ccccc2)c1=O", "TGI": "> 57.6"},
      {"smiles": "Nc1ncnc2c1ncn2C1OC(COS(N)(=O)=O)C(O)C1O", "note": "(stereo not drawn)", "GI50": 0.00182, "TGI": 0.00499},
      {"smiles": "CCOC(=O)C(=O)Nc1cc(Cl)c(Cl)cc1Cl", "TGI": "> 100"},
      {"smiles": "CC(=O)NC1C(OC(C)C(=O)NC(C(=O)NC(CCC(=O)NCCCNC2c3ccccc3Nc3cccc([N+](=O)[O-])c32)C(N)=O)C(C)C)C(O)C(CO)OC1(C)OCc1ccccc1", "note": "(stereo not drawn)", "TGI": 4.83},
      {"smiles": "CC(=O)N1c2ccccc2C2=NN(C)C(=N)SC21", "note": "(stereo not drawn)", "TGI": "> 100"},
      {"smiles": "c1csc(-c2nccc3c2[nH]c2ccccc23)c1", "TGI": 76.7},
      {"smiles": "O=C(O)C1OC1C(=O)O", "note": "(stereo not drawn)", "TGI": "> 100"},
      {"smiles": "CC[C@H](C)C1=C(OC(C)=O)[N@+]2([O-])Oc3ccc(-c4c(O)c(O)c(-c5ccc(OC(C)=O)cc5)c(OC(C)=O)c4OC(C)=O)cc3O[C@]2([C@@H](C)CC)C(=O)N1O", "TGI": "> 50"},
      {"smiles": "CCCCCCCCCC[C@@H](O)[C@@H]1CC[C@@H]([C@@H]2CC[C@@H]([C@@H](O)CCCCCCCCCC[C@H](O)CC3=CC(C)OC3=O)O2)O1", "note": "(stereo partly drawn)", "GI50": 8.68, "TGI": "> 100"},
      {"smiles": "COc1ccc(/C(C)=N/NC(=O)CSc2nc3ccccc3c(=O)n2CCc2ccc(S(N)(=O)=O)cc2)cc1", "GI50": 1.88, "TGI": 4.66},
      {"smiles": "C[P+](C)(C)C", "TGI": "> 100"},
      {"smiles": "CN(CCO)Cc1ncccc1O", "TGI": "> 100"},
      {"smiles": "COC(=O)[C@H](Cc1ccccc1)NC(=O)N(CCC#N)CCCCN(CCC#N)C(=O)N[C@@H](Cc1ccccc1)C(=O)OC", "TGI": "> 100"},
      {"smiles": "c1ccc(CN2CCc3[nH]c4ccccc4c3C2)cc1", "TGI": 49.8},
      {"smiles": "O=C(O)Cc1ccc(Nc2nc3ccccc3nc2C(=O)O)cc1", "TGI": "> 100"},
      {"smiles": "C=C(Cl)/C(=C\\Cl)CCC(Cl)C(C)C", "note": "(stereo not drawn)", "TGI": "> 100"},
      {"smiles": "COc1ccc(C(=O)NC2=C(Cl)C(=O)c3ccccc3C2=O)cc1", "TGI": 20.7},
      {"smiles": "CCCCCCCCOCC(O)CO", "note": "(stereo not drawn)", "TGI": "> 100"},
      {"smiles": "COc1cccc(-c2nn(-c3ccccc3)cc2-c2ccnc(NCCCNC(=O)c3cccc(C(F)(F)F)c3)c2)c1", "GI50": 12.4, "TGI": 55.2},
      {"smiles": "Cc1ccc(S(=O)(=O)OCC#CCOS(=O)(=O)c2ccc(C)cc2)cc1", "GI50": 2.49, "TGI": 6.12},
      {"smiles": "CC(=O)Nc1ccc2c3c(cc(O)c2c1)N(C(=O)CCCCC(=O)N1CC(CCl)c2c1cc(O)c1cc(NC(C)=O)ccc21)CC3CCl", "note": "(stereo not drawn)", "TGI": "> 23"},
      {"smiles": "Cn1c(=O)c2sc3c4sc5c(=O)n(C)c6ccccc6c5c4sc3c2c2ccccc21", "TGI": "> 100"},
      {"smiles": "Cc1ccc(C(=O)NCCCOc2ccc(N3C(N)=NC(N)=NC3(C)C)cc2Cl)cc1S(=O)(=O)F", "GI50": "> 100", "TGI": "> 100"},
      {"smiles": "COc1ccc(C2C(C#N)=C(S)N(C3OC(COC(C)=O)C(OC(C)=O)C(OC(C)=O)C3OC(C)=O)C(C)=C2C(C)=O)cc1", "note": "(stereo not drawn)", "TGI": "> 100"}
    ]}
  ]
}
